Like-named read-outs stand apart in the source and are kept apart here.
What was measured:
[1] = target: T1, human GITR (human, UniProt Q9Y5U5 26-241); assay: cell-based or functional assay
T1 sequence: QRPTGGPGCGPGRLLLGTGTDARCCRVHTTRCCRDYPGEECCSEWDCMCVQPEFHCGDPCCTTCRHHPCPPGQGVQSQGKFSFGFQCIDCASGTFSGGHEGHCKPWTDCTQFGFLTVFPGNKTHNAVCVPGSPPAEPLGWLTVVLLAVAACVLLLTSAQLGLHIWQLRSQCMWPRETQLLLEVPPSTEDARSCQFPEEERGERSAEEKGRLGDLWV

[2] = target: T1, human GITR; assay: flow cytometry on HEK293_NFkB-Nluc2P human GITR cells
[3] = target: T1, human GITR; assay: cell-based or functional assay; remark: listed apart in the source

B1: A-0231-00_TP008 (other)
heavy: EVQLVESGGGLVQPGGSLRLSCAASETIFSIDSMAWYRQAPGKQRELVAAITGGGSPNYADSVKGRFTISSDVAKRTVYLQMNSLKPEDTAVYYCNAEGQAGWGTALMDYWGKGTLVTVSS[… human IgG1 constant region …]
light: EVQLVESGGGLVQPGGSLRLSCAASETIFSIDSMAWYRQAPGKQRELVAAITGGGSPNYADSVKGRFTISSDVAKRTVYLQMNSLKPEDTAVYYCNAEGQAGWGTALMDYWGKGTLVTVSSRTVAAPSVFIFPPSDEQLKSGTASVVCLLNNFYPREAKVQWKVDNALQSGNSQESVTEQDSKDSTYSLSSTLTLSKADYEKHKVYACEVTHQGLSSPVTKSFNRGEC
notes: Two heavy chains (5A03 fused to human IgG1 CH1-CH3) and two light chains (5A03 fused to human kappa CL); Both entries as printed start with a secretion leader; also called Nanobody-human IgG1 chimera A-0231-00_TP008; anti-GITR NB-human IgG1
[1]
  EC50, HEK293 human GITR NF-kB luc reporter (single cell clone): 15.2 pM
[2]
  EC50: 67.5 pM
[3]
  EC50, HEK293 human GITR NF-kB luc reporter (single cell clone): 18.9 pM

Reference: patent US20220411521A1 (Ablynx, published 2022)
